In the supplement of paper PMC10986608:
Some of the results follow. Many values rest on one well or one pass, so single values are uncertain.

system: Candida albicans DPL-15; experiment: growth (OD600) after compound treatment (apparently relative to screen median) (relative growth (fraction; screen median 1.02)); DPL-15 is a caspofungin-resistant clinical isolate; higher = more fungal growth (less antifungal activity); conditions: 25 µM; RPMI 1640; 48 h; 30 °C

SMILES | growth
COC(=O)c1cc2c(c3c4cc(C)ccc4n(S(=O)(=O)c4ccc(C)cc4)c13)C(=O)N(Cc1ccc(C)cc1)C2 | 1.09
COc1ccc([C@@]23Oc4cc(OC)cc(OC)c4[C@]2(O)C2=C(C(=O)N4CCC[C@H]4N2C)[C@H]3c2ccccc2)cc1 | 1.16
CC(=O)C1=C(C)N(Cc2ccc(F)cc2)C(=S)NC1c1cccc(Cl)c1 (configuration not stated) | 0.892
C=CCOC(=O)C(C(C)=O)[C@@H](NC(=O)OC)c1cccc(F)c1 (some centres not stated) | 1.29
CC(=O)OC[C@H]1O[C@H](C#Cc2ccccc2C)C=C[C@@H]1OC(C)=O | 1.03
CC(C)c1c2c(nn1C)C(=O)N(c1ccccc1)C2c1ccc(F)cc1 (configuration not stated) | 0.935
C=CCN1C(=O)C2=C(C(CC(C)C)=NCC(C)(C)N2)C1c1ccc(F)cc1 (configuration not stated) | 1.31
CC1=Cc2cc(O[Si](C(C)C)(C(C)C)C(C)C)ccc2[C@@H]2C=C(C)C(=O)[C@H]2C1 | 1
COc1ccc(F)cc1C1NC(=O)N2CCC=CC2=C1C(C)=O (configuration not stated) | 0.905
Cc1cc2c(c(=O)o1)[C@@]1(C(=O)N(C)c3c(Br)cccc31)C1=C(CCCC1=O)O2 | 1
C[C@H]1CC[C@H]2C(=O)N(Cc3ccc(Cl)cc3)C[C@H](O)CN2[C@@H]1c1cccc(Br)c1 | 1.09
CC(=O)OC[C@H]1O[C@H](C#Cc2cccc(OC34CC5C[C@H](C3)C[C@@H](C5)C4)c2)C=C[C@H]1OC(C)=O | 1.07
COc1cc(CC=C(C)C)c2c(=O)c3c(oc2c1O)CCCC3 | 1.14
CC(=O)C1=C2C=CCCN2C(=O)NC1c1ccc2c(c1)OCO2 (configuration not stated) | 0.885
CC(C)(C)NS(=O)(=O)O[C@@H]1C[C@@H]2CC[C@@]1(C)C2(C)C | 1.1
COc1cc(OC)c2c(c1)OC(Cc1cccc(-c3ccccc3)c1)(c1ccc(Br)cc1)C2=O (configuration not stated) | 0.968
Cc1nn(C)c2c1C(c1ccc3c(c1)OCO3)N(c1ccccc1)C2=O (configuration not stated) | 1.07
COC(=O)C1=C(C)N(Cc2ccccc2)C(NCc2ccc(OC)cc2)=NC1c1cccc(F)c1 (configuration not stated) | 1.07
C=CCCCCc1cccc(-c2cccs2)n1 | 1.08
COC(=O)[C@H]1C(=O)[C@@]2(NCCN(C)C)c3c(OC)cc(OC)cc3O[C@@]2(c2ccc(OC)cc2)[C@@H]1c1ccccc1 | 1.82
CC(=O)C1=C(C)N(Cc2cccc(Cl)c2)C(=S)NC1c1cccc(Cl)c1 (configuration not stated) | 0.929
COc1ccc2c(c1)[C@@]1(CC(C)=C[C@H](COc3cccc(F)c3)O1)C(=O)N2 | 0.886
O=S(=O)(c1ccccc1)N1CCCc2nc(-c3ccccc3)ccc21 | 0.965
C/C=C/C1CC(=O)c2c(O)c(C)c(O)c(C)c2O1 (configuration not stated) | 0.852
COC(=O)C1=C(C)N(C)C(NCc2ccccc2C(F)(F)F)=NC1c1ccc(Cl)cc1 (configuration not stated) | 0.997
COC(=O)[C@@]12Oc3ccc(-c4cnn(C5CCNCC5)c4)c(O)c3C(=O)C1=C(N)C[C@H](C)[C@H]2O | 1.14

SMILES | growth
Cn1nccc1Nc1cc(O)cc(O)c1C(=O)N1CC[C@@H](F)C1 | 1.04
CO[C@@H]1[C@H](O)CC[C@]2(O)CN(c3cccnc3)[C@](C)([C@H](O)CC=C(C)C)[C@@H]12 | 0.888
CCCN1C(NCc2ccc(C(F)(F)F)cc2)=NC(c2ccc(F)cc2)C(C(=O)OC)=C1C (configuration not stated) | 1.02
CC(C)Cc1nn(C)c2c1C(c1ccccc1)N(Cc1ccccc1)C2=O (configuration not stated) | 0.928
COc1ccc(N2C(=O)C3=C(C(C(C)C)=NCC(C)(C)N3)C2c2ccc(F)cc2)cc1 (configuration not stated) | 1.09
COC(=O)C1=C(C)N(Cc2cccc(C(F)(F)F)c2)C(=S)NC1c1cccc(Br)c1 (configuration not stated) | 0.894
CC(=O)C1=C2C=CCCN2C(=O)NC1c1cc(F)cc(Cl)c1 (configuration not stated) | 0.912
COC(=O)C1=C(C(=O)OC)[C@@H](c2ccc(F)cc2)O[C@H]1c1ccc(F)cc1 | 1.13
CC#CCN1C(=O)NC(c2ccccc2)C(C(=O)OC)=C1CC (configuration not stated) | 1.12
COC(=O)C1=C(C)N(Cc2cccc(C(F)(F)F)c2)C(NCC(C)C)=NC1c1ccc(Cl)cc1 (configuration not stated) | 0.93
C=CCN1C(=O)C2=C(C(C)=NCCN2)C1c1ccc2c(c1)OCO2 (configuration not stated) | 1.1
C#CCN(C)C(=O)c1nnc(C(C)=O)c2c3ccccc3n(S(=O)(=O)c3ccccc3)c12 | 0.969
COc1ccccc1N1C(=O)c2[nH]nc(CC(C)C)c2C1c1cccc(Cl)c1 (configuration not stated) | 0.962
Cc1nn(-c2ccccc2)c2c1C(c1cccc(C(F)(F)F)c1)NC2=O (configuration not stated) | 1.04
O=C([O-])COc1ccccc1[N+](=O)[O-] | 1.21
COc1cc(CC=C(C)C)c2c(=O)cc(-c3ccccc3)oc2c1O | 1.09
O=C1C=C(Br)C2(OCCCO2)[C@@H]2O[C@H]12 | 0.988
COc1ccc(N2C(=O)c3c(c(CC(C)C)nn3C)C2c2ccc3c(c2)OCO3)cc1 (configuration not stated) | 0.917
O=c1c2ccccc2oc2cc(CO)c(I)c(O)c12 | 0.77
CC(CCOS(=O)(=O)NC(C)(C)C)CC(C)(C)C (configuration not stated) | 0.943
C=CC[C@]12C[C@@]3(O[C@H](C(C)(C)C)N=C3C[C@H](c3ccc(OC)cc3)[C@H]1C)N(Cc1ccncc1)C2=O | 0.948
COc1ccc([C@@]23Oc4cc(OC)cc(OC)c4[C@]2(O)[C@H](O)[C@H](C(=O)N(C)OC)[C@H]3c2ccco2)cc1 | 1.09
Cn1nc(C2CCCCC2)cc1N | 0.968
Cc1cc(O)c2c3c4c(cc(O)c13)O[C@@]1(C)OCC[C@H]1[C@H]4OC2=O | 1.11
Cc1cc(O)c2c3c4c(cc(O)c13)O[C@@]1(c3ccccc3)OCC[C@H]1[C@H]4OC2=O | 0.955
CCN(CC)CCCNC1=NC(c2ccc(Cl)cc2)C(C(=O)OC)=C(C)N1Cc1ccc(C(F)(F)F)cc1 (configuration not stated) | 1.01
